# Reference: PubChem BioAssay (NCATS)
# Inconclusive means that the source gave no clear call. Such entries were picked first, then a sample of the others. For part of these data: A potency beside an inconclusive call is a rough fit, not a confirmed value. Activity calls are given as the source filed them. Unless noted, the call rests on the fitted dose curve; in most records, active means well fitted curve in the direction sought with a large enough effect; inconclusive means small, poorly fitted or top-dose-only effect, or another doubt; inactive means no such curve, though single readings can be large; an effect the other way counts as inactive or inconclusive.
# Key:
# [1] = qHTS Assay for Identification of Small Molecule Agonists for Hypoxia Response Element Signaling Pathway (AID 914; active means well fitted activation curve with a large enough effect in the signal ratio, with a control signal flat, not every such curve was filed as active; inconclusive means small, poorly fitted or top-dose-only effect, or effect the other way, or a change in a side signal; the % refers to the signal ratio; further: potency means the concentration at half of the fitted maximal effect; on activation: top concentration of the series differs between compounds; % of control where 0% means no effect); details: ME-180 HRE-bla reporter, beta-lactamase ratio, CoCl2, 17 h; activation: stronger effect = higher value
# Summary of the method: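 HRE-bla ME-180 assay for agonist-like enhancement of an EC50 CoCl2 stimulus: 17 h at 37 degrees Celsius, CCF4 for 2.5 h, ratiometric 460/530 nm signal converted to %Activity and fitted to AC50.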
# [2] = qHTS Assay for Lipid Storage Modulators (AID 1519; calls by dose curve; further: on the % scale 0 is the no-effect control and ±100 the full control effect); details: Drosophila S3 cells, BODIPY lipid droplet/cell ratio, laser cytometry, cells loaded with oleic acid; activity change, negative = inhibition: at 57.5 µM (top of the series) unless noted
# Summary of the method: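 Cells seeded at 5,000 per well were treated with compounds over a concentration series and loaded with oleic acid (400 uM, as added). Lipid droplet fluorescence (488 nm excitation, 500-530 nm channel) was read by laser-scanning cytometry and normalized to 20 uM Triacsin C.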
# [3] = molecular target: Dual specificity protein kinase CLK4 (Homo sapiens) (UniProt Q9HAZ1); assay: qHTS Assay for Inhibitors of CDC-like Kinase 4 (ADP-Glo Assay) (AID 1771); further: nearly all actives have a fitted effect of over 70% in size; further: potency means the concentration at half of the fitted maximal effect
# Summary of the method: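 ADP production was read by ADP-Glo luminescence after residual ATP depletion, following 1 h room-temperature reaction of 25 nM Clk4, 1 uM ATP and 100 uM RS peptide with MgCl2, EGTA, DTT and Triton X-100.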
# [4] = molecular target: Ubiquitin carboxyl-terminal hydrolase 1 (Homo sapiens) (UniProt O94782); assay: Inhibitors of USP1/UAF1: Pilot qHTS (AID 504865); further: potency means the concentration at half of the fitted maximal effect;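 further: rhodamine fluorescence freed from ubiquitin-rhodamine substrate followed over time; nearly all actives have a fitted effect of over 35% in size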
# Summary of the method: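 Enzyme-free wells gave the negative control, while test wells held 1nM USP1/UAF1 preincubated with compound for 15 min at room temperature. Ub-Rho at 150nM final started the reaction, and fluorescence at 480/540 nm was recorded kinetically.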
# [5] = Primary qHTS for small molecule stabilizers of the endoplasmic reticulum resident proteome: Secreted ER Calcium Modulated Protein (SERCaMP) assay (AID 1508630); details: SH-SY5Y GLuc-SERCaMP (Gaussia luciferase released on ER calcium loss) secretion, thapsigargin, luminescence; activity change, negative = inhibition: at 38.4 µM (top of the series) unless noted; further: potency means the concentration at half of the fitted maximal effect
# Summary of the method: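 The SH-SY5Y reporter protocol was run at 3 concentrations up to 38.3 uM (primary) or 11 concentrations (follow-up): 16 h compound, 100 nM thapsigargin for 4 h, then extracellular luciferase luminescence.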
# [6] = Stat Signaling Pathway (AID 446; active means well fitted curve in either direction with a large enough effect, not every such curve was filed as active; inconclusive means small, poorly fitted or top-dose-only effect, or another doubt;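 further: ME-180 cervical cancer cells given 40 pM IL-6 alongside compound; SIE-controlled beta-lactamase reporter measured as 460/530 nm FRET emission ratio; top concentration of the series differs between compounds; on the % scale 0 is the no-effect control and ±100 the full control effect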); details: ME-180 SIE beta-lactamase reporter, IL-6 stimulated, 5 h; at 7.69 µM (top of the series) unless noted
# Summary of the method: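 FRET read-out (405 nm excitation, 460/530 nm emission) of a beta-lactamase reporter under a STAT-inducible element in ME-180 cervical carcinoma cells. Cells with compound receive 40 pM IL-6 for 5 h. Values are normalised to AC90 stimulation and AC90 JAK-inhibitor controls.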
# [7] = molecular target: 3',5'-cyclic-AMP phosphodiesterase 4B (Homo sapiens) (UniProt Q07343); assay: qHTS Assay for Inhibitors of PDE-IV (AID 607; active means well fitted activation curve with a large enough effect in the main read-out, with a control signal flat, not every such curve was filed as active; inconclusive means small, poorly fitted or top-dose-only effect, or effect the other way, or a change in a side signal; further: potency means the concentration at half of the fitted maximal effect); details: HEK293 ACTOne CNG channel cells, membrane potential fluorescence; activation (PDE inhibition): at 22.9 µM (top of the series)
# Summary of the method: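 Cell-based read-out of cAMP via a modified cyclic nucleotide-gated channel and membrane potential dye (535/590 nm) in HEK293 cells expressing PDE4 endogenously. Compounds tested up to 22.9 uM final; 100 uM RO 20-1724 reference.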
# [8] = molecular target: Dual specificity protein kinase CLK4 (Homo sapiens) (UniProt Q9HAZ1); assay: qHTS Assay for Inhibitors of CDC-like Kinase 4 (Kinase-Glo Assay) (AID 1770); further: nearly all actives have a fitted effect of over 65% in size; further: potency means the concentration at half of the fitted maximal effect
# Summary of the method: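 Clk4 25 nM, RS peptide 100 uM, ATP 1 uM, pH 7.5 Tris, 10 mM MgCl2, 2.5 mM DTT; 4.5 h RT; ATP depletion read by Kinase-Glo luminescence.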
# [9] = NFAT Signaling Pathway (AID 444; active means well fitted curve in either direction with a large enough effect, not every such curve was filed as active; inconclusive means small, poorly fitted or top-dose-only effect, or another doubt;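 further: carbachol stimulus at about its EC50 of 1 µM final; on the % scale 0 is the no-effect control and ±100 the full control effect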); details: Jurkat NFAT-bla M1, carbachol, beta-lactamase ratio, 5 h; at 7.69 µM (top of the series) unless noted
# Summary of the method: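 Jurkat cells carrying an NFAT-driven β-lactamase reporter and co-transfected muscarinic M1 receptor were treated with compound plus carbachol (1 uM final, an EC50 level) for 5 h at 37 °C. CCF4 loading followed for 1 h at RT; 460/530 nm ratio gave %activity.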
# [10] = molecular target: Dual specificity protein kinase CLK4 (Homo sapiens) (UniProt Q9HAZ1); assay: qHTS Assay for Inhibitors of CDC-like Kinase 4 (ADP-FP Assay) (AID 1795);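 further: recombinant human CLK4 phosphorylating RS repeat peptide at 1 µM ATP; potency means the concentration at half of the fitted maximal effect; nearly all actives have a fitted effect of over 60% in size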
# Summary of the method: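 Kinase activity was followed as ADP output, converted from fluorescence polarization with a calibration curve. Reactions ran one hour at low ATP (1 uM) with RS peptide substrate.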
# [11] = AP1 Signaling Pathway (AID 357; active means well fitted curve in either direction with a large enough effect, not every such curve was filed as active; inconclusive means small, poorly fitted or top-dose-only effect, or another doubt;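 further: ME-180 reporter cells stimulated with EGF at its EC50 level; top concentration of the series differs between compounds; on the % scale 0 is the no-effect control and ±100 the full control effect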); details: ME-180 (cervical carcinoma) AP-1-bla reporter, EGF-induced, beta-lactamase ratio, 5 h; at 7.69 µM (top of the series) unless noted
# Summary of the method: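 First, ME-180 AP-1-bla cells were cultured overnight at 37 °C in low-serum Opti-MEM. Next, titrated compounds with EC50 EGF were incubated 5 hours. Finally, CCF4 was added for 2.5 hours and the 460/530 nm ratio recorded.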
# [12] = molecular target: Mitogen-activated protein kinase 10 (Mus musculus) (UniProt Q61831); assay: JNK3 AlphaScreen Assay (AID 530; active means well fitted curve in either direction with a large enough effect, not every such curve was filed as active; inconclusive means small, poorly fitted or top-dose-only effect, or another doubt;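 further: kinase came from lysate of stimulated human HepG2 cells; signal reports phosphorylation of biotinylated GST-cJun 1-79 at Ser73 with 10 µM ATP; potency means the concentration at half of the fitted maximal effect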); details: JNK3 lysate, c-Jun phosphorylation; activity change, negative = inhibition: at 57.1 µM (top of the series)
# Summary of the method: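 Phosphorylation of biotinylated GST-cJun(1-79) at Ser73 is measured by AlphaScreen proximity luminescence. Enzyme is JNK3 in HepG2 lysates activated with interleukin-1beta and tumor necrosis factor alpha; ATP is 10 uM final.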
# [13] = molecular target: Cytochrome P450 2D6 (Homo sapiens) (UniProt P10635); assay: qHTS Assay for Inhibitors and Substrates of Cytochrome P450 2D6 (AID 891);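 further: luciferin methyl ether substrate demethylated by CYP2D6 with NADPH regeneration; potency means the concentration at half of the fitted maximal effect; nearly all actives have a fitted effect of over 60% in size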
# Summary of the method: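 Luminescent read-out of luciferin formed by 5 nM human CYP2D6 demethylating 30 uM Luciferin-ME EGE (Km level) over 60 min at room temperature after NADPH regeneration addition. Data normalized to full inhibition by 1.43 uM quinidine.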
# Tags describe the fitted curve by direction and shape or compound fluorescence and quenching.
# Chain of UniProt O94782 (O94782 whole entry, looked up): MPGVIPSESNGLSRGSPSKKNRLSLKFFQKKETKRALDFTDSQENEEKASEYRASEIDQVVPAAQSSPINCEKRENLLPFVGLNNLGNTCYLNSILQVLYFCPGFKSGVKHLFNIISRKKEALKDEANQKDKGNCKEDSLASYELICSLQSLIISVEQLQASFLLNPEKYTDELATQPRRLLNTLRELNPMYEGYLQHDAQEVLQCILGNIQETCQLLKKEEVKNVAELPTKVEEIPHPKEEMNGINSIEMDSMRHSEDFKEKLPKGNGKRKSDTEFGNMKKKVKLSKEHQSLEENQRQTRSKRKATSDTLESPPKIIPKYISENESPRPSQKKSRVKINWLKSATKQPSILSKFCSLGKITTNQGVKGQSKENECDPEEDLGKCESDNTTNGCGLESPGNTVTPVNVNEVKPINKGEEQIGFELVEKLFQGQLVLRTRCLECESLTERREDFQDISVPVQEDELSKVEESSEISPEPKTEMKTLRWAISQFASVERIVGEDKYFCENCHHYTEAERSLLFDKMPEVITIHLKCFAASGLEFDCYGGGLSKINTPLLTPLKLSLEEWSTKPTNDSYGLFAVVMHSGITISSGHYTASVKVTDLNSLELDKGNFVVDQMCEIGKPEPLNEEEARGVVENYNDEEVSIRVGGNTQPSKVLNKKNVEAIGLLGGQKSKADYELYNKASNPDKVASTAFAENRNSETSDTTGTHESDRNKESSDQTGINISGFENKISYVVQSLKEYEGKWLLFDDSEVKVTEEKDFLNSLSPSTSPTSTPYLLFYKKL
# Chain of UniProt Q07343 (Q07343 whole entry, looked up): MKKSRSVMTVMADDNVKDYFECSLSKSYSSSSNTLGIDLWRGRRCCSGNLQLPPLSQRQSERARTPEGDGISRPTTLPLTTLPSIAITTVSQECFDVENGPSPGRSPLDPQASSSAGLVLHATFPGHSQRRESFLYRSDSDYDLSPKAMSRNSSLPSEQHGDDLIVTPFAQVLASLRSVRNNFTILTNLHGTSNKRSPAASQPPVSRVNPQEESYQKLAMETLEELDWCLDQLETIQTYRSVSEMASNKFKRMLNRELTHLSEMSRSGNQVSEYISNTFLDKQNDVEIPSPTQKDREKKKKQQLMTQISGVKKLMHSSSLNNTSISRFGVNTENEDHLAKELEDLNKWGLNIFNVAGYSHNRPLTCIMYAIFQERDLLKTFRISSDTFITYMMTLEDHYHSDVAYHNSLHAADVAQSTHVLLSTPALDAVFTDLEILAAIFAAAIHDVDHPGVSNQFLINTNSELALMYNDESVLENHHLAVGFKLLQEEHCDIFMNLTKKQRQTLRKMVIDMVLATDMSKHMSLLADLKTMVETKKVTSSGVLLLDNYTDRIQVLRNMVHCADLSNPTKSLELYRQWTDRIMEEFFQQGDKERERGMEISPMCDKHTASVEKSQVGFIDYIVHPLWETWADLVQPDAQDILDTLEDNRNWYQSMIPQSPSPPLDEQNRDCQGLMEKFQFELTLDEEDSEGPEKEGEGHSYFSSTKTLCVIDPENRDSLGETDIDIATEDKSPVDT
# Chain of UniProt Q9HAZ1 (Q9HAZ1 whole entry, looked up): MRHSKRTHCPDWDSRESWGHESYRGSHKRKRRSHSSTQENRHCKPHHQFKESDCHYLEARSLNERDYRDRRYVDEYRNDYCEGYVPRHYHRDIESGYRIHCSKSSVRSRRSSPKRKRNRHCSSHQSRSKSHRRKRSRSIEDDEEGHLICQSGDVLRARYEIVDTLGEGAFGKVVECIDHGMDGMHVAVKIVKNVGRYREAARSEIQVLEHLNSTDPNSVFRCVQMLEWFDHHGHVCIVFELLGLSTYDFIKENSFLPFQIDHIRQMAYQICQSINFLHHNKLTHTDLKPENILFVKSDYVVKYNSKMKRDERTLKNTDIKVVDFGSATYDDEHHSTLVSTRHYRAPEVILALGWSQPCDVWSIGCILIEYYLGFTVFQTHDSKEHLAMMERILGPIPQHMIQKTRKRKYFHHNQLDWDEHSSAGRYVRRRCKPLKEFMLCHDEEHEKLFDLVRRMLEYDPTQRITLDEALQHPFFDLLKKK
# Chain of UniProt P10635 (P10635 whole entry, looked up): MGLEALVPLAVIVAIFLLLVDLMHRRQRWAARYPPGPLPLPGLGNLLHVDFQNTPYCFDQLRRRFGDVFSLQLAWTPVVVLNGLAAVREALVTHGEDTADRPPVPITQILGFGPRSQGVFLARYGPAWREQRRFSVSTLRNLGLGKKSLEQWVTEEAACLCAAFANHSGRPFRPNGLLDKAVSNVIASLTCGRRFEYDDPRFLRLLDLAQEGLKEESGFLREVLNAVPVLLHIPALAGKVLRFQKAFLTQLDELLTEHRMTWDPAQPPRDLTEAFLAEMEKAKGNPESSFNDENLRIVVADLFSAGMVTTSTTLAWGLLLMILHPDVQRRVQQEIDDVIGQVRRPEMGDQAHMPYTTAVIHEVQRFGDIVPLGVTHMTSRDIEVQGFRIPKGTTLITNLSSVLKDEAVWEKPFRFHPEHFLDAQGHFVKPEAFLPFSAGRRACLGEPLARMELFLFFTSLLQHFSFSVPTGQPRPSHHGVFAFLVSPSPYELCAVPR
smiles,measurement,setting,value
COc1cccc(Nc2ncc3nc(-c4ccc(Cl)cc4)c(=O)n(C[C@H]4CCCO4)c3n2)c1,Potency,[1],"inconclusive: 5.01 µM [activator, single point]"
same,"activity change, negative = inhibition",[2],inconclusive: -23.7%
same,Potency,[3],inactive
same,Potency,[4],"inconclusive: 17.8 µM [inhibitor, partial curve, poor fit]"
same,Potency,[5],inactive
CCNc1ncc2nc(-c3cccs3)c(=O)n(-c3ccccc3)c2n1,"activity, negative = inhibition",[6],inconclusive: 34.2% [activator]
same,Potency,[7],"inconclusive: 5.01 µM [activator, partial curve]"
same,"activity change, negative = inhibition",[2],inconclusive: -24.4%
same,Potency,[8],"inconclusive: 7.94 µM [falling, partial curve]"
same,Potency,[3],"inconclusive: 14.1 µM [falling, partial curve]"
same,Potency,[5],inactive
CN(Cc1ccco1)c1cc(-c2cccc(C#N)c2)ncn1,"activity change, negative = inhibition",[9],inactive: 11.4%
same,"activity change, negative = inhibition",[2],inconclusive: 8.93%
same,Potency,[8],"inconclusive: 25.1 µM [falling, partial curve]"
same,Potency,[10],"inconclusive: 20 µM [falling, single point]"
same,Potency,[5],inactive
COc1ccccc1-c1nc(NC2CC2)c2ccccc2n1,Potency,[7],"inconclusive: 10 µM [activator, partial curve]"
same,"activity change, negative = inhibition",[2],inconclusive: 7.34%
same,Potency,[8],"inconclusive: 15.8 µM [falling, partial curve]"
same,Potency,[10],"inconclusive: 15.8 µM [falling, partial curve]"
same,Potency,[5],"inconclusive: 28.2 µM [inhibitor, single point]"
N#CCCn1c(=O)c(-c2cccc(C#N)c2)nc2cnc(Oc3cccc(Cl)c3)nc21,"activity change, negative = inhibition",[9],inactive: -6.45%
same,activation,[1],inconclusive: -25.8%
same,"activity change, negative = inhibition",[2],inconclusive: -13.3%
same,Potency,[8],inactive
same,Potency,[5],"inconclusive: 28.2 µM [inhibitor, single point]"
COCCNc1nc(-c2ccccc2C(F)(F)F)nc2ccccc12,Potency,[7],"inconclusive: 10 µM [activator, partial curve]"
same,"activity change, negative = inhibition",[2],inconclusive: 1.5%
same,Potency,[8],"inconclusive: 22.4 µM [falling, single point]"
same,Potency,[3],"inconclusive: 25.1 µM [falling, partial curve]"
same,Potency,[5],inactive
O=c1c(-c2ccccc2)nc2cnc(Oc3cccc(Cl)c3)nc2n1C[C@H]1CCCO1,"activity change, negative = inhibition",[11],inconclusive: -39% [inhibitor]
same,"activity change, negative = inhibition",[9],inactive: -8.22%
same,Potency,[7],"inconclusive: 3.98 µM [activator, partial curve]"
same,activation,[1],inconclusive: -39.4%
same,Potency,[2],inactive
same,Potency,[8],inactive
same,Potency,[3],inactive
same,Potency,[5],"inconclusive: 11.2 µM [inhibitor, partial curve, poor fit]"
CN(C)c1ccc(-c2ccc3ncnc(N(C)Cc4ccco4)c3c2)cc1,"activity change, negative = inhibition",[9],inconclusive: -31.6% [inhibitor]
same,activation,[1],inactive: -3.37%
same,"activity change, negative = inhibition",[2],inconclusive: 7.22%
same,Potency,[8],active: 8.91 µM
same,Potency,[10],"inconclusive: 12.6 µM [falling, partial curve]"
same,Potency,[5],inactive
COc1ccccc1-c1ccc2ncnc(N3CCOCC3)c2c1,"activity change, negative = inhibition",[11],inconclusive: -36.8% [inhibitor]
same,Potency,[7],"inconclusive: 12.6 µM [activator, partial curve]"
same,"activity change, negative = inhibition",[2],inconclusive: 2.14%
same,Potency,[3],active: 12.6 µM
same,Potency,[4],inactive
same,Potency,[5],"inconclusive: 28.2 µM [inhibitor, single point]"
O=c1c(-c2ccccc2)nc2cnc(N3CCOCC3)nc2n1CCc1ccccc1,"activity change, negative = inhibition",[11],inconclusive: 65.6% [activator]
same,"activity change, negative = inhibition",[9],inconclusive: 84.2% [activator]
same,"activity, negative = inhibition",[6],inconclusive: 110% [activator]
same,Potency,[12],"inconclusive: 2.51 µM [activator, partial curve]"
same,Potency,[7],"inconclusive: 12.6 µM [activator, single point]"
same,Potency,[1],active: 3.16 µM
same,"activity change, negative = inhibition",[2],inconclusive: 0.189%
same,Potency,[3],"inconclusive: 39.8 µM [falling, partial curve]"
same,Potency,[5],"inconclusive: 28.2 µM [inhibitor, single point]"
Cc1ccccc1-c1ccc2ncnc(NCCN3CCOCC3)c2c1,"activity change, negative = inhibition",[9],inactive: -0.729%
same,"activity, negative = inhibition",[6],inactive: -5.84%
same,Potency,[7],"inconclusive: 10 µM [activator, single point]"
same,"activity change, negative = inhibition",[2],inconclusive: -4.63%
same,Potency,[8],"inconclusive: 20 µM [falling, partial curve]"
same,Potency,[3],"inconclusive: 28.2 µM [falling, partial curve]"
same,Potency,[5],"inconclusive: 31.6 µM [inhibitor, single point]"
Cc1noc(C)c1-c1nc(NCc2cccs2)c2ccccc2n1,"activity change, negative = inhibition",[9],inconclusive: -41.6% [inhibitor]
same,"activity, negative = inhibition",[6],inactive: -8.06%
same,Potency,[7],"inconclusive: 12.6 µM [activator, partial curve]"
same,Potency,[13],"inconclusive: 3.98 µM [inhibitor, full curve]"
same,"activity change, negative = inhibition",[2],inconclusive: 0.198%
same,Potency,[3],"inconclusive: 4.47 µM [falling, full curve]"
same,Potency,[4],active: 10 µM
same,Potency,[5],inactive
